Data: the supplement of paper PMC9588766
Where a name gives a salt, the structure may show the parent alone. ± gives the standard deviation of the averaged measurements. In all, about 2,000 compounds were measured (“cell viability relative to DMSO control (compound alone)”: median about 0.98, lowest 2% from about 0.23 on). The list shows a part of the results.

What follows are molecules tested on PDC-DUC18828 (assay: cell viability relative to DMSO control (compound alone) (fraction); PDC-DUC18828 is a patient-derived cholangiocarcinoma cell line; higher = less growth inhibition). Conditions: 1 µM; 72 h.
Experimental: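 Selleck Bioactive library screen in the patient-derived FGFR2-G3BP2 fusion-positive ICC cell line PDC-DUC18828 (500 cells/well). Each compound was tested at 1 uM alone, in triplicate, for 72 h. Viability was read by CellTiter-Glo and normalised to plate DMSO controls.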

Structure (SMILES) | cell viability
COc1cc(Nc2ncc(F)c(Nc3ccc4c(n3)N(COP(=O)(O)O)C(=O)C(C)(C)O4)n2)cc(OC)c1OC [Fostamatinib (R788)] | 0.837 ± 0.05
Cn1c(=O)cc(N2CCC[C@@H](N)C2)n(Cc2ccccc2C#N)c1=O [Alogliptin] | 0.995 ± 0.029
CC1(C)S[C@@H]2[C@H](NC(=O)[C@H](NC(=O)N3CCN(S(C)(=O)=O)C3=O)c3ccccc3)C(=O)N2[C@H]1C(=O)O [Mezlocillin Sodium] | 1.06 ± 0.057
Cc1nnc(C(C)C)n1C1C[C@H]2CC[C@@H](C1)N2CC[C@H](NC(=O)C1CCC(F)(F)CC1)c1ccccc1 (stereo in doubt) [Maraviroc] | 1.02 ± 0.038
CCCCCCCN(CC)CCCC(O)c1ccc(NS(C)(=O)=O)cc1 (configuration not stated) [Ibutilide Fumarate] | 1.04 ± 0.041
COc1cnc(NS(=O)(=O)c2ccc(N)cc2)nc1 [Sulfameter] | 1.07 ± 0.083
O=NN(CCCl)C(=O)NC1CCCCC1 [Lomustine] | 0.9169 ± 0.0047
COc1cc(CCC(C)=O)ccc1O [Vanillylacetone] | 1.02 ± 0.054
CC(C)c1cc(C(=O)N2Cc3ccc(CN4CCN(C)CC4)cc3C2)c(O)cc1O | 0.404 ± 0.034
CN1CCC(COc2cnc(-c3cccc(Cn4nc(-c5cccc(C#N)c5)ccc4=O)c3)nc2)CC1 | 1.04 ± 0.039
COc1cc(C(=O)NC2CCCNC2)cc(OC)c1OC (configuration not stated) [Troxipide] | 1.08 ± 0.05
C[C@]12CC[C@@H]3c4ccc(O)cc4CC[C@H]3[C@@H]1CCC2=O [Estrone] | 1.01 ± 0.037
CCCCCCCCc1ccc(CCC(N)(CO)CO)cc1 [Fingolimod (FTY720) HCl] | 0.937 ± 0.012
Cc1ccc(-c2c(-c3nn(C)c4ncnc(N5CC[C@H](N6CCCCC6)C5)c34)cnn2C)cc1 | 1.01 ± 0.065
O=C1OC(CN2CCOCC2)CN1/N=C/c1ccc([N+](=O)[O-])o1 (configuration not stated) [Furaltadone HCl] | 1.08 ± 0.034
CC(C)(C(=O)NCC(F)(F)C(F)(F)F)C(=O)N[C@@H]1C(=O)Nc2ccccc2-c2ccccc21 | 1.09 ± 0.023
Cc1cc(C)c(CNC(=O)c2cc(-c3ccc(N4CCN(C)CC4)nc3)cc3c2c(C)cn3C(C)C)c(=O)[nH]1 | 0.998 ± 0.011
COC(=O)[C@H](CCSC)NC(=O)c1ccc(NC[C@@H](N)CS)cc1-c1ccccc1 | 0.925 ± 0.024
CCOc1cc(N)c(Cl)cc1C(=O)NCC1CN(Cc2ccc(F)cc2)CCO1 (configuration not stated) [Mosapride Citrate] | 1.02 ± 0.046
CCC(C)n1ncn(-c2ccc(N3CCN(c4ccc(OCC5COC(Cn6cncn6)(c6ccc(Cl)cc6Cl)O5)cc4)CC3)cc2)c1=O (configuration not stated) [Itraconazole] | 0.972 ± 0.031
Cc1cccc(Nc2ccccc2C(=O)O)c1C [Mefenamic Acid] | 1.07 ± 0.025
C=CCn1c(=O)c2cnc(Nc3ccc(N4CCN(C)CC4)cc3)nc2n1-c1cccc(C(C)(C)O)n1 | 0.402 ± 0.025
Clc1ccc(C(Cn2ccnc2)OCc2csc3c(Cl)cccc23)c(Cl)c1 (configuration not stated) [Sertaconazole nitrate] | 0.981 ± 0.06
CC1(C)S[C@@H]2[C@H](NC(=O)Cc3ccccc3)C(=O)N2[C@H]1C(=O)O [Penicillin G Sodium] | 1.02 ± 0.023
CCCCc1nc(Cl)c(CO)n1Cc1ccc(-c2ccccc2-c2nnn[nH]2)cc1 [Losartan Potassium (DuP 753)] | 1.01 ± 0.065
O=C(Nc1cccc2cccnc12)c1ccc(N2C(=O)[C@@H]3[C@H](C2=O)[C@@H]2C=C[C@H]3C2)cc1 [IWR-1-endo] | 0.811 ± 0.029

Structure (SMILES) | cell viability
O=C1CCC(N2C(=O)c3ccccc3C2=O)C(=O)N1 (configuration not stated) [Thalidomide] | 1.042 ± 0.0051
c1cn2cc(-c3ccc4cn[nH]c4c3)nc(Nc3ccc(N4CCOCC4)cc3)c2n1 | 0.857 ± 0.053
C[C@H](CCC(=O)NCCS(=O)(=O)O)[C@H]1CC[C@H]2[C@@H]3[C@@H](O)C[C@@H]4C[C@H](O)CC[C@]4(C)[C@H]3CC[C@]12C [Sodium Tauroursodeoxycholate (TUDC)] | 0.953 ± 0.043
O=C(Nc1cccc(Nc2ncc(Br)c(NCCc3cnc[nH]3)n2)c1)N1CCCC1 | 0.713 ± 0.041
COc1ccccc1N1CCN(CCCNc2cc(=O)n(C)c(=O)n2C)CC1 [Urapidil HCl] | 1.04 ± 0.078
CN(C)CCCn1cc(C2=C(c3c[nH]c4ccccc34)C(=O)NC2=O)c2ccccc21 | 1.02 ± 0.041
COc1nc(N)nc2c1ncn2[C@@H]1O[C@H](CO)[C@@H](O)[C@@H]1O [Nelarabine] | 0.984 ± 0.057
O=c1c2ccccc2nc2n1CCc1c-2[nH]c2ccccc12 [Rutaecarpine] | 0.98 ± 0.02
O=C(/C=C/C=C/c1ccc2c(c1)OCO2)N1CCCCC1 [Piperine] | 1 ± 0.044
CCC(=O)OCC(=O)[C@@]1(OC(=O)CC)[C@@H](C)C[C@H]2[C@@H]3CCC4=CC(=O)C=C[C@]4(C)[C@@]3(Cl)[C@@H](O)C[C@@]21C [Beclomethasone dipropionate] | 0.87 ± 0.038
Cc1cc(C)nc(SCC(=O)Nc2ncc(Cc3cccc4ccccc34)s2)n1 | 0.925 ± 0.023
O=C1NC(=O)[C@@H](c2cn3c4c(cccc24)CCC3)[C@@H]1c1c[nH]c2ccccc12 [Tivantinib (ARQ 197)] | 0.469 ± 0.045
C[C@H]1Oc2cc(cnc2N)-c2c(nn(C)c2C#N)CN(C)C(=O)c2ccc(F)cc21 | 0.961 ± 0.14
C[C@@]1(c2cc(-c3cncnc3)c(F)cc2F)CCSC(N)=N1 | 0.988 ± 0.037
CCOC(=O)Nc1ccc(NCc2ccc(F)cc2)nc1N [Flupirtine maleate] | 1.01 ± 0.013
CCOc1cc(C(C)(C)C)ccc1C1=N[C@@](C)(c2ccc(Cl)cc2)[C@@](C)(c2ccc(Cl)cc2)N1C(=O)N1CCN(CCCS(C)(=O)=O)CC1 | 0.912 ± 0.0094
O=C(O)CCCC[C@@H]1SC[C@@H]2NC(=O)N[C@@H]21 [Biotin (Vitamin B7)] | 0.996 ± 0.046
O=C(/C=C/N1C[C@H]2C[C@@H]1CN2c1ccccn1)c1ccccc1O | 1.11 ± 0.056
CC(=O)SCC(Cc1ccccc1)C(=O)NCC(=O)OCc1ccccc1 (configuration not stated) [Racecadotril] | 0.954 ± 0.043
C[C@H](CCC(=O)O)[C@H]1CC[C@H]2[C@@H]3CC[C@@H]4C[C@H](O)CC[C@]4(C)[C@H]3CC[C@]12C [Lithocholic acid] | 1.01 ± 0.03
Cn1c(Nc2ccc(C(F)(F)F)cc2)nc2cc(Oc3ccnc(-c4ncc(C(F)(F)F)[nH]4)c3)ccc21 | 0.85 ± 0.043
COC(=O)C1=C(C)NC(C)=C(C(=O)OC(C)C)C1c1cccc2nonc12 (configuration not stated) [Isradipine] | 1.01 ± 0.056
CC1(C)CCC2=C(O1)c1ccccc1C(=O)C2=O [Beta-Lapachone] | 0.79 ± 0.054
CC(=O)OCC[N+](C)(C)C [Acetylcholine Chloride] | 0.945 ± 0.021
S=C(NCc1ccc2c(c1)OCO2)N1CCN(c2ncnc3c2oc2ccccc23)CC1 [Amuvatinib (MP-470)] | 0.916 ± 0.033
OCCN1C[C@H](O)[C@@H](O)[C@H](O)[C@H]1CO [Miglitol] | 1.04 ± 0.031

Structure (SMILES) | cell viability
CC(C)C(=O)Nc1ccc([N+](=O)[O-])c(C(F)(F)F)c1 [Flutamide] | 1.046 ± 0.0086
CC(=O)Oc1cc2c(s1)CCN(C(C(=O)C1CC1)c1ccccc1F)C2 (configuration not stated) [Prasugrel] | 1.01 ± 0.086
Cn1cnc([N+](=O)[O-])c1Sc1ncnc2[nH]cnc12 [Azathioprine] | 0.964 ± 0.038
CC(C)CN(C[C@@H](O)[C@H](Cc1ccccc1)NC(=O)O[C@H]1CO[C@H]2OCC[C@H]21)S(=O)(=O)c1ccc(N)cc1 [Darunavir Ethanolate] | 1 ± 0.08
COc1cc(/C=C/C(=O)CC(=O)/C=C/c2ccc(O)c(OC)c2)ccc1O [Curcumin] | 0.968 ± 0.031
Cc1cc2c(F)c(Oc3ncnn4cc(OC[C@@H](C)O)c(C)c34)ccc2[nH]1 | 1.01 ± 0.044
O=C(O)CSCC(=O)NC1CCSC1=O (configuration not stated) [Erdosteine] | 0.961 ± 0.025
O=c1[nH]cnc2[nH]ncc12 [Allopurinol Sodium] | 1.06 ± 0.039
CN1CCN(C2CCN(C(=O)Nc3cc(Oc4ccc(NC(=O)C5(C(=O)Nc6ccc(F)cc6)CC5)c(F)c4)ccn3)CC2)CC1 [Golvatinib (E7050)] | 0.886 ± 0.048
C[N+](C)(C)CCO.[Cl-] [Choline Chloride] | 1.05 ± 0.049
CCOC(=O)[C@H](CCc1ccccc1)N[C@@H](C)C(=O)N1Cc2cc(OC)c(OC)cc2C[C@H]1C(=O)O [Moexipril HCl] | 1.05 ± 0.062
Clc1ccc(Nc2nnc(Cc3ccncc3)c3ccccc23)cc1 [Vatalanib (PTK787) 2HCl] | 0.97 ± 0.04
Cn1cc(-c2ccc3nnc(Sc4ccc5ncccc5c4)n3n2)cn1 | 1.07 ± 0.046
O=C1NC(=O)/C(=C/c2cccc(C(F)(F)F)c2)S1 | 1 ± 0.018
Cc1cc(O)c2c(c1)C(=O)c1cc(O)cc(O)c1C2=O [Emodin] | 1.04 ± 0.025
Fc1ccc([C@@H]2CCNC[C@H]2COc2ccc3c(c2)OCO3)cc1 [Paroxetine HCl] | 0.853 ± 0.061
Nc1nc(O)c2ncn(CCC(CO)CO)c2n1 [Penciclovir] | 0.966 ± 0.045
O=c1[nH]cnc2c1ncn2[C@H]1CC[C@@H](CO)O1 [Didanosine] | 1.03 ± 0.04
CN(C/C=C/C#CC(C)(C)C)Cc1cccc2ccccc12 [Terbinafine] | 1.02 ± 0.064
CN(C/C=C/C#CC(C)(C)C)Cc1cccc2ccccc12 [Terbinafine HCl] | 0.972 ± 0.019
Nc1nc(Nc2ccc3c(c2)CCC(N2CCCC2)CC3)nn1-c1cc2c(nn1)-c1ccccc1CCC2 (configuration not stated) | 0.8 ± 0.048
CCCC(=O)OCOC(=O)C1=C(C)NC(C)=C(C(=O)OC)C1c1cccc(Cl)c1Cl (configuration not stated) [Clevidipine Butyrate] | 0.983 ± 0.049
C[C@H]1COc2c(N3CCN(C)CC3)c(F)cc3c(=O)c(C(=O)O)cn1c23 [Levofloxacin] | 1.03 ± 0.075
NC(CO)C(=O)NNCc1ccc(O)c(O)c1O (configuration not stated) [Benserazide HCl] | 0.949 ± 0.049
CCCCC[C@H](O)/C=C/[C@H]1[C@H](O)CC(=O)[C@@H]1CCCCCCC(=O)O [Alprostadil] | 1.03 ± 0.02
